Test results from PMC4336329 (PLoS ONE, 2015).
The whole screen tested about 310,000 compounds, of which about 2,200 (0.71%) showed an effect of 50% or more. Effects have a minus sign here. This is one part of the list.

What follows are compounds tested against human ether-à-go-go-related gene (hERG) potassium channel (human, UniProt Q12809) (assay: primary screen, population patch clamp on CHO cells stably expressing hERG).
Chain of human ether-à-go-go-related gene (hERG) potassium channel (Q12809 whole entry, looked up): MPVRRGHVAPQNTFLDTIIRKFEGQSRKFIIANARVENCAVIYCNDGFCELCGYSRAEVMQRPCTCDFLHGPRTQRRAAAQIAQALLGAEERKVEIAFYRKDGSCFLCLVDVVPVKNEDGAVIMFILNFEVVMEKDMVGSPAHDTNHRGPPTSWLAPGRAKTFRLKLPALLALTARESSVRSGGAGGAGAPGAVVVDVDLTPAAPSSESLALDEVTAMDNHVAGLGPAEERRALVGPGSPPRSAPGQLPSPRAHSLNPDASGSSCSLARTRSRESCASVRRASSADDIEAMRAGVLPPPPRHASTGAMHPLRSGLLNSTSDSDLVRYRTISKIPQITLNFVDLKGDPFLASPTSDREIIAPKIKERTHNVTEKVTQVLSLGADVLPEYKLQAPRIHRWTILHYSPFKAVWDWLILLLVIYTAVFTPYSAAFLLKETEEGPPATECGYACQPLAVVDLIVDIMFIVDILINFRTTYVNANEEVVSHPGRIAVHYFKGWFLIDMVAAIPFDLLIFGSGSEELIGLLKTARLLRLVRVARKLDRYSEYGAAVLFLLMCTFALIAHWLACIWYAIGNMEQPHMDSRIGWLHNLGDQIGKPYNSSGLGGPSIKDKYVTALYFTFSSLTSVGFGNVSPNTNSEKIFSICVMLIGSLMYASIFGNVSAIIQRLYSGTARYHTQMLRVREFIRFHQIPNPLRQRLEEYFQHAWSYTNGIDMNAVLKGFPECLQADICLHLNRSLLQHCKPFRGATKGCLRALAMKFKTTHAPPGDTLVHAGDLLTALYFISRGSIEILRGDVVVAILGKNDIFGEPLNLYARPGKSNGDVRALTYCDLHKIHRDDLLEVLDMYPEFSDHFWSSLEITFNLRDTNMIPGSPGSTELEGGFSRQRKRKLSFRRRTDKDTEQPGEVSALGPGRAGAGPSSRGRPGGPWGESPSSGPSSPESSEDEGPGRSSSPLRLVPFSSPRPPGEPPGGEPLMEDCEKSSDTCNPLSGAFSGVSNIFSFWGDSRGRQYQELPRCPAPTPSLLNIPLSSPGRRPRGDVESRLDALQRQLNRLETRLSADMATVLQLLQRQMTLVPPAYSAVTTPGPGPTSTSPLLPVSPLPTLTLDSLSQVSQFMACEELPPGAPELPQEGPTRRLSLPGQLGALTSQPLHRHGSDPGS

Compound	hERG current change (%, negative = inhibition) at 1uM [%]
CC(C)CC(=O)NC1(C(F)(F)F)C(=O)N(Cc2ccccc2)C2=C1C(=O)CC(C)(C)C2 (stereo not drawn)	-9.68
Cc1ccc(OCc2nc(-c3cccnc3)no2)cc1C	6.73
COc1ccc2nc(C)[nH]c(=O)c2c1	9.62
CCc1ccc(CNC(=O)CCS(=O)(=O)Cc2ccccc2F)cc1	9.27
Cn1cccc1C(C#N)c1ncc(C(F)(F)F)cc1Cl (stereo not drawn)	6.42
CC(=O)Nc1ccccc1/C=C/c1ccc2c(C)cc(C)c(O)c2n1	16.5
COc1ccc(OC)c(S(=O)(=O)N2CCC3(CC2)OCCN3S(=O)(=O)c2cccs2)c1	-10.3
N#Cc1c(NC(=O)c2ccc(N3CCOCC3)c([N+](=O)[O-])c2)sc2c1CCCC2	7.03
CN1CCN(C(=O)CCS(=O)(=O)c2cc3c(cc2Cl)NC(=O)CO3)CC1	6.68
Cc1ccc(NC(=O)CSc2nnc(C)n2C2CC2)cc1S(=O)(=O)N1CCOCC1	10.6
Cc1ccc(CN2CC(C(=O)N3CC=C(c4ccccc4)CC3)CC2=O)cc1 (stereo not drawn)	-1.5
Cc1ccnc(NC2CCCCC2)c1	8.45
CC(=O)NC1CSCC1OC(C)=O (stereo not drawn)	13
COc1ccc(CCNC(=O)CSc2ccc(-c3ccccc3)nn2)cc1	-9.1
COc1ccc(CCn2ccc(O)c(Cc3c(F)cccc3Cl)c2=O)cc1OC	14.4
Cc1ccc(C)c(CNS(=O)(=O)c2c(C(=O)N3CCCC3)c(C)n(C)c2C)c1	-2.09
CCc1ccc(/C=N/NC(=O)C(=O)NCCCN2CCOCC2)cc1	-6.93
Cc1cccc2cn[nH]c12	9.85
O=C(COC(=O)c1cccc(S(=O)(=O)N2CCCCC2)c1)NC1CCCCC1	4.97

Compound	hERG current change (%, negative = inhibition) at 1uM [%]
CC(=O)Nc1ccc(Nc2ccccc2)cc1	10.1
COc1cccc(C(=O)OCCCN(C)C)c1.Cl	0.536
Cc1nc2ccccn2c1/C(O)=C1\C(=O)C(=O)N(CCN(C)C)C1c1cccnc1 (stereo not drawn)	-5.95
COc1ccc(Cl)cc1-n1c(N)c(C(N)=O)sc1=S	11.6
COc1ccc(-c2csc(NC(=O)c3ccccc3F)c2C(=O)O)cc1	17.8
Oc1cc2c(cc1CN1CCN(c3ccccc3)CC1)CCC2	5.59
CC(C)(C)C(=O)Nc1cccc(OC(F)(F)C(F)Cl)c1 (stereo not drawn)	5.08
C/C(N)=C(/C#N)C(=O)COC(=O)c1cccc(C)c1O	18.4
COc1ccc(-c2nnc(SCC(=O)c3ccc(O)cc3O)o2)cc1	8.51
CC/C(=N\O)c1ccc(O)c(OC)c1	8.83
COc1ccc(/C=C/C(=O)OCC(=O)Nc2ccc(OC)c(S(=O)(=O)N3CCCCC3)c2)cc1	5.81
CC(C)(C)c1ccc(C2(C)NC(=O)N(CC(=O)NCc3cccs3)C2=O)cc1 (stereo not drawn)	11.1
Cn1c(=O)oc2cc(S(=O)(=O)NCCC(=O)NCc3ccccc3Cl)ccc21	7.95
COC(=O)CSc1nc(-c2ccccc2)nc2ccccc12	13.4
CC1(C)CC(=O)C=C(c2cccnc2)C1	9.06
CCCNC(=O)c1ccc(N2CCC3(CC2)CC(c2cccc(Br)c2)=NO3)c(NC(=O)c2ccco2)c1	7.37
CC(C)(C)N(NC(=O)c1ccccc1)C(=O)c1cccc(C(=O)N(NC(=O)c2ccccc2)C(C)(C)C)c1	12.7
CCOc1ccc(C(=O)CCC(=O)N2CCN(c3ncccn3)CC2)cc1	3.06
COc1cc(C2C(C#N)=C(N)OC3=C2C(=O)CC(C)(C)C3)c([N+](=O)[O-])cc1OC (stereo not drawn)	11.1

Compound	hERG current change (%, negative = inhibition) at 1uM [%]
C=CCn1c(-c2ccc(OC)c(OC)c2)n[nH]c1=S	14.1
CN(CCC1CCOCC1)Cc1cn[nH]c1-c1ccc(-c2ccccc2)cc1	-25.9
CCOC(=O)C1=C(c2ccccc2)Nc2ncnn2C1c1ccc(OC)c(OC)c1OC (stereo not drawn)	8.98
Cn1c(NC(=O)C[n+]2cc(-c3ccccc3)n3c2CCC3)cc(=O)n(C)c1=O.[Cl-]	-1.21
CCn1c(=NC(=O)c2ccco2)sc2cccc(F)c21	14.1
Cc1ccc(OCC(=O)NNC(=O)Nc2ccc(Cl)cc2)c(Br)c1	16
CNCCC(Oc1ccccc1OC)c1ccccc1.Cl (stereo not drawn)	-13.2
CCCC(=O)Nc1ccc(C(=O)NCCCn2ccnc2)cc1	-1.2
COc1cc2c(C(=O)NCCCN3CC(C)CC(C)C3)cn(CC(C)C)c(=O)c2cc1OC (stereo not drawn)	-4.54
Cc1ccn(C(=O)c2ccc(NC(=O)C3CC3)cc2)n1	14.2
CCc1cccc(NC(=O)Cn2cc(C=O)c3ccccc32)c1	0.416
Cc1ccc2nc(Cc3ccc(N)cc3)[nH]c2c1.Cl	13.4
Cc1cc(OCC(=O)Nc2ccc(Br)cc2)cc2c1C(=O)CC(C)(C)O2	4.88
COc1ccc(CNC(=O)C(C)N=C2NS(=O)(=O)c3ccccc32)cc1OC (stereo not drawn)	13.7
CC(=O)N1N=C(c2cccnc2)OC1c1ccccc1Cl (stereo not drawn)	3.56
Cc1ccc(-c2nnc(NC(=O)c3c(F)cccc3Cl)s2)cc1	11.2
CCC(C)(C)n1nnnc1C(c1ccc2ncccc2c1)N1CCN(Cc2ccc3c(c2)OCO3)CC1 (stereo not drawn)	3.29
COc1ccccc1CNC(=O)[C@H](C)NC(=O)C1CCN(C(=O)[C@H](CCSC)NC(=O)OC(C)(C)C)CC1	4.1
O=C1C(C2=C(O)c3ccccc3C2=O)=Nc2ccccc21	-12.6
